In the supplement of paper PMC3334620:
In all, about 33,000 sequences were measured (“E-score (-0.5 to 0.5)”: median about -0.036, highest 2% from about 0.37 on). The list shows a part of the results.

Target: T1, Yer064c (UniProt P40041)
T1 sequence: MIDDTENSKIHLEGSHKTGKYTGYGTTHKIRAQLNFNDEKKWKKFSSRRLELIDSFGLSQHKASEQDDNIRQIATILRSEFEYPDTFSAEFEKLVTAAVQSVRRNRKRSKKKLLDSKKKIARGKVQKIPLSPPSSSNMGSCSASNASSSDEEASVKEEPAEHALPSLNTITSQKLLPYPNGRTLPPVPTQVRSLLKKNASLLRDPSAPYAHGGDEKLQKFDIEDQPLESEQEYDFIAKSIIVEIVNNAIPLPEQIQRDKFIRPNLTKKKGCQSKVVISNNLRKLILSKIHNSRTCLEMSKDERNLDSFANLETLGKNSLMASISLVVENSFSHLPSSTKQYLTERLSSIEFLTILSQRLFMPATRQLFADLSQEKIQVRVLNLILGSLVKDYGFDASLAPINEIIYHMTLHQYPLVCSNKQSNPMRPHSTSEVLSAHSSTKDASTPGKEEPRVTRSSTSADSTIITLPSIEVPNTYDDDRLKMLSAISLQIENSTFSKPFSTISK
Assay: PBM E-score (8-mer binding enrichment) (E-score (-0.5 to 0.5)); higher = stronger / more preferred TF binding; most listed sequences are background and not binding sites
Conditions: protein concentration: 200 nM; construct: GST-full length
Procedure, shortened: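 Yeast transcription factors, full-length or as DNA-binding domains, were expressed with a GST tag using PURExpress in vitro transcription/translation. At about 100-200 nM they were applied to universal all-10-mer Agilent arrays, double-stranded by primer extension on fresh or once-stripped slides. Fluorescent anti-GST detected bound protein, and masliner normalised the scans. E-scores for ungapped eight-base words, pooled with reverse complements, came from the Universal PBM Analysis Suite.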

Row | Sequence | PBM E-score
1 | CCCCCGTC | -0.377
2 | AATTCTCG | -0.0439
3 | GGCATGAA | -0.0473
4 | AGAACGCC | -0.178
5 | AATGTAAT | 0.0265
6 | CCGCGTCC | -0.228
7 | AATGCAAA | 0.0614
8 | GATTAACC | 0.294
9 | GATATAAA | 0.00569
10 | ACGGCAAC | -0.019
11 | GATTATGC | 0.112
12 | CCCGAGCG | 0.0533
13 | AAGAACCT | -0.288
14 | ACTATTGG | -0.0677
15 | CTATGTCA | -0.0224
16 | CCTAATGA | 0.076
17 | CGTTGAGA | 0.159
18 | AGGCTTTC | -0.0873
19 | ACAACTTG | -0.127
20 | ACACCACA | 0.0441
21 | ACCCTTGC | -0.0882
22 | GGTATCTA | -0.163
23 | CTAACGTA | 0.197
24 | GTAATTAA | 0.148
25 | AGAGTGAC | 0.0971

Row | Sequence | PBM E-score
26 | TCATATGA | 0.393
27 | ACGCTCTC | -0.0508
28 | GGAAACGA | 0.176
29 | AAGCAGCC | -0.198
30 | AGAATTAA | -0.117
31 | AACCGGTT | -0.0675
32 | AATGCCAT | -0.214
33 | TCCGCCGA | -0.138
34 | CAGGTCAG | -0.0795
35 | GCAGGTCA | -0.0837
36 | AACCGGGT | -0.141
37 | ACACAGAA | 0.127
38 | CCGGGCCG | -0.182
39 | TATCCAGA | -0.0829
40 | AACAGAAC | 0.0521
41 | AGGCTCTG | -0.169
42 | TAGAAGGA | -0.223
43 | CACCTTAC | -0.00359
44 | ATAGCGTG | -0.132
45 | ATTGATTC | 0.301
46 | ACACATGA | 0.284
47 | ACCGTCTG | -0.294
48 | TCAACTGA | 0.2
49 | AAATGGTG | 0.00492
50 | AGGATAGC | -0.128

Row | Sequence | PBM E-score
51 | CATTACAG | -0.0355
52 | AGGCATAG | -0.24
53 | CCCCGGCA | -0.192
54 | ATAGGTGC | -0.135
55 | TCGTAGAA | -0.0901
56 | CGAGATAA | 0.0474
57 | CGGGTTAA | 0.00304
58 | CGCCATCA | -0.26
59 | GGGGTGTA | -0.17
60 | CATGACGG | -0.11
61 | AGCACCTA | -0.287
62 | AACGCACC | -0.168
63 | ACTGTATC | -0.163
64 | ATACAGTC | 0.16
65 | ATCTTCGC | 0.0563
66 | AAAAGGGG | -0.189
67 | GGAAATAA | 0.0785
68 | ATGGAATG | -0.094
69 | CAGGCTAA | -0.0864
70 | CGAAAACA | -0.133
71 | GTTACCTA | 0.014
72 | AGATCCGA | -0.0932
73 | ATTTCCGC | 0.0475
74 | CGAGAGCA | -0.109
75 | CTTGAAAA | 0.0333

Row | Sequence | PBM E-score
76 | AACCGGTC | -0.202
77 | AGACCGGA | 0.0278
78 | ATCCCCTA | -0.226
79 | AATTTCCC | -0.228
80 | ACGCTCAA | 0.0189
81 | CGCGCCCG | -0.139
82 | AGCACAAG | 0.107
83 | CGACTGTC | 0.123
84 | CGCCGCAC | -0.255
85 | AAGCCTGT | -0.00621
86 | CGCAAATC | -0.174
87 | CTGCCACA | -0.142
88 | GCGAGCAA | -0.119
89 | CTCTAAAC | -0.0222
90 | AACTCTAA | 0.12
91 | GGATGATA | -0.185
92 | CTGGCCAG | -0.0767
93 | GCGTAAAA | 0.121
94 | ATGCGATG | 0.0307
95 | GCTCTCTA | -0.147
96 | ACGAGATG | 0.0698
97 | CGTTGAAA | -0.0397
98 | CTTTTAGC | 0.00776
99 | TCACCAAA | 0.166
100 | CCACTGAA | 0.162

Row | Sequence | PBM E-score
101 | AGCCGACC | -0.0628
102 | CATTAGCC | -0.0726
103 | AGAGGGAA | -0.207
104 | CCGCAACC | -0.145
105 | AATCGTTG | 0.0993
106 | CGGCAGAG | -0.148
107 | AAGTCATG | 0.465
108 | ACACATTC | 0.124
109 | AAATGAGA | 0.12
110 | CACTGAGA | 0.0924
111 | AGCGCGTA | 0.0749
112 | GCGGACGA | -0.045
113 | ACCTGAAG | -0.0636
114 | AAATAGGT | -0.105
115 | AGTAAACT | 0.0427
116 | TAAATTGA | 0.199
117 | ATCCCGAA | -0.0406
118 | AGAGCATG | -0.038
119 | AATGTTCT | -0.193
120 | GTAGTCTA | 0.29
121 | CTACTAAG | 0.0152
122 | TGCATACA | -0.114
123 | CGGTACTA | -0.177
124 | AGGTAGAG | -0.155
125 | CGGCAGTA | -0.26

Row | Sequence | PBM E-score
126 | ACAGCGAC | 0.00958
127 | ATTCCCGG | 0.117
128 | CACGTGGG | -0.174
129 | AGAAAATA | 0.143
130 | CCCGGTCC | -0.293
131 | TTAAGAAA | 0.0927
132 | AAAAATAA | 0.143
133 | GCTCAAGC | -0.0445
134 | GGCCCATA | -0.0655
135 | CCGTAGAA | -0.136
136 | ACCGCGAC | 0.198
137 | AAGCTTGC | -0.213
138 | GGACGCTA | -0.36
139 | CCGATCGA | -0.0393
140 | AGTCACGC | 0.469
141 | ACCTGCCT | -0.16
142 | CTAGATAG | 0.0392
143 | ATACGGAA | -0.0806
144 | GATAGAAA | -0.161
145 | TCCCAGGA | -0.248
146 | AAATCTTC | 0.0915
147 | GAATTCCA | -0.00599
148 | AGAGAACC | -0.167
149 | CCTAAGAG | -0.078
150 | ACTTGGGC | -0.129

Row | Sequence | PBM E-score
151 | TGGCCCCA | -0.321
152 | AGAGAACA | -0.0209
153 | ACATAGCC | 0.109
154 | CCCGCTGA | 0.0541
155 | ATTCCCGC | -0.151
156 | AGGAGCCG | -0.213
157 | CCCTATTC | -0.281
158 | AGGCAGAG | 0.0112
159 | TGTGGAAA | -0.101
160 | ATCTTTTC | -0.0371
161 | ACTCCACC | 0.127
162 | GGTGGTCA | -0.072
163 | AACTATTC | -0.0637
164 | AGTTATTG | 0.0222
165 | CACCTCGC | -0.162
166 | CAAGCGTA | -0.0586
167 | CTTAACAC | 0.0726
168 | CCCTGCAA | -0.142
169 | AAGCCCTA | -0.125
170 | ACGGGAGT | 0.164
171 | CCCATAGG | -0.143
172 | CACATTCC | 0.0956
